Among all 410,000 compounds or so, about 850 (0.21%) were called active. The shares of active, inactive and inconclusive entries below differ from those in the screen. Calls come from the whole dose curve; as a rule, active = well fitted inhibition curve with a large enough effect; inconclusive = small, poorly fitted or top-dose-only effect, or another doubt; inactive = no such curve, though single readings can be large or run the other way. Where the call is inconclusive, the potency comes from a doubtful curve fit.
target: Glutaminase kidney isoform, mitochondrial (Homo sapiens) (UniProt O94925); assay: qHTS for Inhibitors of Glutaminase (GLS); settings: GLS enzymatic activity, qHTS titration; series mostly up to 45.5 µM; activity change, negative = inhibition: at the top concentration
Sequence of UniProt O94925 (O94925 whole entry, looked up, canonical isoform): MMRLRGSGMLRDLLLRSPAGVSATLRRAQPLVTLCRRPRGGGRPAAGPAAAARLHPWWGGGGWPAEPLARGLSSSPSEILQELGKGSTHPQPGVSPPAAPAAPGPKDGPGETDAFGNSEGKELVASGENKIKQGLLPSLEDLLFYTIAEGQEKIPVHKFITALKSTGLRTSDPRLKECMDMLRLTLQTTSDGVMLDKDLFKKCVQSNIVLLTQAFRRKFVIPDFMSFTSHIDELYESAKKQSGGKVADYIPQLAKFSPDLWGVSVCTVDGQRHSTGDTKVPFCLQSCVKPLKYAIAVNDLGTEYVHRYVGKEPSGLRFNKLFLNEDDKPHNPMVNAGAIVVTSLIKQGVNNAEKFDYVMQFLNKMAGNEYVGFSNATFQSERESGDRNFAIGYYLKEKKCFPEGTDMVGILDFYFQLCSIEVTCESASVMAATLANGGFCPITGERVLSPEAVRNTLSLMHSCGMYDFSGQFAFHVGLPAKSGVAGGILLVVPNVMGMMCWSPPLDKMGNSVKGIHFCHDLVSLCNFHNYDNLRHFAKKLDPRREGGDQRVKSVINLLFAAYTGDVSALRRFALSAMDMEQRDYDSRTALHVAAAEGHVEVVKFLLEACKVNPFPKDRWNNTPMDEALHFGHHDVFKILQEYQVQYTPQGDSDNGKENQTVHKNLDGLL
Procedure, shortened: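 Compounds were pin-transferred onto hKGA, after which L-glutamine (1 mM solution) and a detection mix of glutamate oxidase, HRP and Amplex Red were added. Initial and 30 min RT fluorescence reads were collected.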
% is set by controls: 0 for no effect and ±100 for the full control effect; potency is the fitted concentration of half-maximal effect; tags give direction and shape of the fitted curve.

Potency, inconclusive:
CCOc1cc(/C=C(\C#N)c2nc(-c3cccs3)c(NC(C)=O)s2)ccc1O 10 µM [inhibitor, partial curve], Cc1cccc(C)c1NC(=O)CS(=O)CC(=O)NCCCc1ccccc1 (configuration not stated) 22.4 µM [inhibitor, single point], CCOC(=O)c1sc(N)nc1C(F)(F)F 25.1 µM [inhibitor, single point], CCCNC(=O)CSc1nnc(-c2ccco2)n1C 35.5 µM [inhibitor, single point], COCC1CCCCN1C(=O)c1ccc(OC)c(OC2CCN(C(C)C)CC2)c1 (configuration not stated) 11.2 µM [inhibitor, partial curve, poor fit], Cc1cc(NC(=O)Cc2cccs2)no1 20 µM [inhibitor, partial curve, poor fit], COC(=O)c1scc(S(=O)(=O)C(C)C)c1N/N=C(\C#N)C(=O)c1ccc(Cl)cc1 35.5 µM [inhibitor, single point], Cc1[nH]c2ccccc2c1/C=N/Nc1nncn1N 11.2 µM [inhibitor, partial curve, poor fit], O=C(CC(Nc1ccccc1)C(=O)O)c1ccccc1 (configuration not stated) 15.8 µM [inhibitor, single point], CCCS(=O)(=O)Nc1c(C(=O)O)[nH]c2ccc(OC)cc12 11.2 µM [inhibitor, partial curve], N#Cc1ccccc1NC(=S)NC(=O)c1cccnc1 14.1 µM [inhibitor, partial curve], C[C@@H]1CCCCO[C@H](CN(C)S(=O)(=O)c2cn(C)cn2)[C@@H](C)CN([C@H](C)CO)C(=O)c2cc(NC(=O)c3ccncc3)ccc2O1 35.5 µM [inhibitor, partial curve, poor fit], CCOC(=O)C(=NC1CCS(=O)(=O)C1)NNc1cc(Cl)ccc1Cl (configuration not stated) 31.6 µM [inhibitor, single point], C1=C(CCNc2ncnc3c2cnn3-c2ccccc2)CCCC1 35.5 µM [inhibitor, single point], O=c1c2cc(F)ccc2sn1-c1ccccc1Cl 35.5 µM [inhibitor, single point], O=C(Nc1nc(-c2ccccc2)c(-c2ccccc2)o1)c1ccc(F)cc1 35.5 µM [inhibitor, single point], Cc1ccc(S(=O)(=O)NCCc2nnc3ccc(SCc4ccccc4C)nn23)cc1 35.5 µM [inhibitor, single point], Cc1cc(C)cc(NC(=O)c2ccc(NC(=O)c3ccco3)cc2)c1 5.62 µM [inhibitor, single point], Cc1cccn2c(=O)c3cc(C(=O)NC(C)c4ccccc4)c(=N)n(CCCn4ccnc4)c3nc12 (configuration not stated) 25.1 µM [inhibitor, single point], Cc1cc(=O)oc2c(C)c(OC(C)C(=O)NC(Cc3c[nH]c4ccc(O)cc34)C(=O)O)ccc12 (configuration not stated) 7.08 µM [inhibitor, partial curve], N#CC1=C(N)NC(=S)C(C(N)=O)C1c1ccc([N+](=O)[O-])cc1 (configuration not stated) 10 µM [inhibitor, partial curve], COP(=O)(OC)c1ccc(NCc2cc(O)ccc2O)cc1 35.5 µM [inhibitor, single point], CCN=C1S/C(=C/c2ccc(-c3ccc(Cl)cc3C(=O)O)o2)C(=O)N1CC 35.5 µM [inhibitor, single point], O=C(NNc1cccc(Cl)n1)c1ccccc1CC[N+](=O)[O-] 11.2 µM [inhibitor, partial curve], CCc1ccccc1NC(=O)Nn1cnnc1 31.6 µM [inhibitor, single point], Cn1c(-c2sccc2OCc2cccc(C(F)(F)F)c2)n[nH]c1=S 11.2 µM [inhibitor, single point], S=c1[nH]nc(Cc2c[nH]c3ccccc23)o1 35.5 µM [inhibitor, single point], CCN1C(=O)C(CC(=O)Nc2ccc(F)cc2)N(CCCN2CCN(c3ccc(F)cc3)CC2)C1=S (configuration not stated) 15.8 µM [inhibitor, partial curve], COc1ccccc1/C=C1/C(=O)N(c2ccccc2)N=C1C 22.4 µM [inhibitor, partial curve, poor fit], Cc1ccc(NC(=O)c2cccc(C(=O)Nc3ccc(C)cc3C(=O)O)c2)c(C(=O)O)c1 35.5 µM [inhibitor, single point], C/C(=N\Nc1nc2ccccc2[nH]1)c1ccc(C)o1 15.8 µM [inhibitor, single point], O=C(CSc1nnc(-c2cccc(S(=O)(=O)N3CCCC3)c2)n1-c1ccccc1)Nc1ccc(C(=O)O)cc1 35.5 µM [inhibitor, partial curve, poor fit]

Potency, inactive:
Cc1ccc(-c2nc(CS(=O)CC(=O)N3CCN(c4ccccc4)CC3)c(C)o2)cc1 (configuration not stated)

Activity change, negative = inhibition, inactive:
CCCOC(=O)C1[C@H]2C(=O)N(Cc3ccco3)C[C@]23C=C[C@H]1O3 (some centres not stated) -2.31%, COc1cccc(N(CC(=O)NCC2CCCO2)C(=O)CNS(=O)(=O)c2ccccc2)c1 (configuration not stated) -0.918%, Cc1ccc2oc(C(=O)N(Cc3ccccc3F)C3CCS(=O)(=O)C3)c(C)c2c1 (configuration not stated) 3.05%, O=C(Nc1cccc(-n2cnnn2)c1)c1ccoc1COc1ccc(Cl)cc1 4.35%, COC(=O)c1cc(OC)c(OC)cc1NC(=O)CN1C(=O)c2ccccc2C1=O 1.77%, COc1ccccc1/C=C/C(=O)N1CCN(S(=O)(=O)c2cccs2)CC1 2.87%, Cc1cccc(C(=O)O/N=C(\N)c2cccc([N+](=O)[O-])c2)c1 -4.93%, Cc1cc(=O)[nH]c(SCC(=O)Nc2ccc(C(=O)O)cc2)n1 -3.05%, COc1ccc([N+](=O)[O-])cc1NCc1ccccc1C 26.3%
